Among all 310,000 compounds or so, about 14,000 (4.5%) showed an effect of 50% or more. Effects have a minus sign here. Some of the results follow.
Target: human ether-à-go-go-related gene (hERG) potassium channel (human, UniProt Q12809)
Experiment: primary screen, population patch clamp on CHO cells stably expressing hERG
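Note: peak tail current of the secondary pulse compared with the same well before compound.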

Sequence of human ether-à-go-go-related gene (hERG) potassium channel (Q12809 whole entry, looked up): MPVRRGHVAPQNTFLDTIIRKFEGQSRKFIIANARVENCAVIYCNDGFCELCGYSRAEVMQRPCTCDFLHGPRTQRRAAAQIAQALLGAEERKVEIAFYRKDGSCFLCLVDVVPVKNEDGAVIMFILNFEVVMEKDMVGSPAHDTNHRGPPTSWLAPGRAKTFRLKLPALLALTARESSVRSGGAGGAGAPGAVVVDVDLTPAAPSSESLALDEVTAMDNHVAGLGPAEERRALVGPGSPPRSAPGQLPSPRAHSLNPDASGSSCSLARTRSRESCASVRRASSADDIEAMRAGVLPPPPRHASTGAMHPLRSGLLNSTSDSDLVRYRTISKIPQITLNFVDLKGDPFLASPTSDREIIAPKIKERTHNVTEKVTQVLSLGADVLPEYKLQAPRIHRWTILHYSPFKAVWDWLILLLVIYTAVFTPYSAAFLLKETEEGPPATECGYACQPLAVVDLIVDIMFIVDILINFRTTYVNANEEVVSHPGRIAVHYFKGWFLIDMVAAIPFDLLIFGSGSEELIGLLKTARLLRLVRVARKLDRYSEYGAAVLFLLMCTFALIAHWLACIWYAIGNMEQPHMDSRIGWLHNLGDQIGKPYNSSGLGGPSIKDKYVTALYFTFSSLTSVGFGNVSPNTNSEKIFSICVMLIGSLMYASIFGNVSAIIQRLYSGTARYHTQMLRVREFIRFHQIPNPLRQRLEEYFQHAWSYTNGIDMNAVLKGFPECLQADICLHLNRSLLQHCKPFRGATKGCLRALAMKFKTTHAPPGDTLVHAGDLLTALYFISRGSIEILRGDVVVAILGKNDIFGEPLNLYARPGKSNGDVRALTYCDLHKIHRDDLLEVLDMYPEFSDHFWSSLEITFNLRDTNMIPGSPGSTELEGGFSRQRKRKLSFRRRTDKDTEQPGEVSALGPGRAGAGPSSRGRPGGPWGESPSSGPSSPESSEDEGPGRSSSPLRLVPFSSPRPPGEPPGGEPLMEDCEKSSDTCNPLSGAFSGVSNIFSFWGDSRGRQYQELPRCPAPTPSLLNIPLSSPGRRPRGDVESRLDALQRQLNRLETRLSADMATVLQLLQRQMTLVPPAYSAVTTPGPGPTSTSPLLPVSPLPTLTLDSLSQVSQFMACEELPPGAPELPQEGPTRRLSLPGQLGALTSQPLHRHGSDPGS

SMILES	hERG current change (%, negative = inhibition) at 10uM [%]
Cc1ccc(NC(=O)c2cccc(S(=O)(=O)NCc3ccccc3)c2)nc1	-50.7
Cc1c(NS(=O)(=O)c2ccc3[nH]c(=O)[nH]c3c2)c(=O)n(-c2ccccc2)n1C	0.00908
CN(C)c1ccc(CNC(=O)CN2C(=O)COc3ccc(S(=O)(=O)N4CCCC4)cc32)cc1	9.58
CCOC(=O)c1[nH]c2ccc(Cl)cc2c1NC(=O)/C=C/c1ccc2c(c1)OCO2	-1.13
CCn1c2ccccc2c2cc(/C=N/n3c(C)nnc3C)ccc21	-25
Cc1cccc(C(=O)N2CCC(=O)N(C(COCc3cccc(C(F)(F)F)c3)Cc3ccccc3)CC2)c1 (centres unmarked)	-18.2
CCN1CCc2c(C#N)c(NCc3ccccc3)nc(NCCO)c2C1	-51.6
O=C(NCC(c1cccs1)N1CCOCC1)c1cn(-c2ccccc2)nc1-c1ccccc1 (centres unmarked)	-25
CCOc1ccc(NC(=O)Cn2nnc(C(=O)NCCc3ccc(OC)c(OC)c3)c2N)cc1	-4.9
CC(=O)/C(N=Nc1cc(C)ccc1O)=C(\C)O	11.7
CC(C)c1ccccc1NC(=O)COC(=O)Cc1cccc(C(F)(F)F)c1	17.2
CCN(C=NC1=NN(c2cccc(C(F)(F)F)c2)CC1)CC	-35.8
Cc1cccc(NC(=S)N2CCC(NC(=O)c3ccco3)CC2)c1	-18.2
O=[N+]([O-])c1ccccc1OCCCN1CCOCC1	7.89
O=C(CCC(=O)N1CCN(c2cccc(Cl)c2)CC1)c1cccs1	-56.8
O=c1[nH]c2cccnc2n1Cc1ccco1	-0.176
O=C(OCc1nc2ccccc2s1)c1ccc(Br)o1	12
CC1CCN(c2ccc(C(=O)O)cc2)CC1	2.86
Cc1ccc(-n2ncc(C(=O)NCC3CCN(C4CCCC4)C3)c2C2CCN(C(=O)OC(C)(C)C)CC2)cc1 (centres unmarked)	-20.4
CC1CC(C)CN(S(=O)(=O)CCNC(=O)c2ccc3c(c2)OCO3)C1 (centres unmarked)	9.64
COC(=O)c1ccccc1NC(=O)c1ccccc1OC	-23.1
CCCCCCn1c(CN2CCC(C)CC2)nc2c1c(=O)n(C)c(=O)n2C	-8.75
CCN(CC(=O)Nc1c(F)cccc1F)C(=O)CCc1c[nH]c2ccccc12	0.268

SMILES	hERG current change (%, negative = inhibition) at 10uM [%]
CCOc1ccc(S(=O)(=O)Nc2ccc(S(=O)(=O)N3CCCCC3)cc2)cc1	-18.6
CCOC(=O)c1cnc(-c2ccccc2)nc1Oc1ccc(Cl)cc1	2.31
Cc1ccc[n+](CC(=O)Nc2cc(C(F)(F)F)ccc2Cl)c1.[Cl-]	-1.85
COc1ccccc1-c1sc2cc3c(cc2c1C#CCO)OCO3	12
Cc1ccccc1OCC(=O)NNC(=O)c1ccc(-c2ccccc2)cc1	-8.56
CCCC(C)NC(=O)COC(=O)c1ccccc1SCC(=O)NC(C)CCC (centres unmarked)	-6.47
O=C(CCC(=O)Nc1nnc(C2CCCCC2)s1)Nc1ccc(F)cc1	-11.3
O=C(Nc1ccc(Br)cc1)NC1CCCCCCC1	2.29
Cc1ccc(NC(=O)CCC(=O)N/N=C/c2ccccc2O)cc1	16.9
COc1ccc(Cc2c(O)nc(SC)n(C(C)=O)c2=O)cc1	15.6
CC1(C)CC(CCN)(Cc2ccccc2Cl)CCO1 (centres unmarked)	-1.1
O=C(Nc1cccc(NC(=O)c2cccc([N+](=O)[O-])c2)n1)c1cccc([N+](=O)[O-])c1	-14
CCN(CC(=O)Nc1ccc(NC(C)=O)cc1)C(=O)C1CCCN(C(=O)c2ccc(Cl)cc2)C1 (centres unmarked)	-3.75
CCCCCC(=O)N1CC2(CC)CN(C(=O)CCCCC)CC(CC)(C1)C2=O	-21.6
CC(=O)c1ccccc1NS(=O)(=O)c1ccc2c(c1)CC(=O)N2	2.66
CC(C(=O)Nc1ccc(C#N)cc1)N1CCN(C(=O)C2CC2)CC1 (centres unmarked)	-61.2
C=CCN(C(=O)c1csnn1)C(C(=O)NCc1ccccc1)c1ccccc1F (centres unmarked)	0.909
O=S(=O)(c1ccc2oc(=S)[nH]c2c1)N1CCCCC1	28.3
Clc1cccc(Cc2ccc(Cl)nn2)c1	-3.46
CC(C)(C)C(=O)Nc1nc2c(c(=O)[nH]1)CCCC2	7.35
O=S(=O)(Nc1cc(Cl)ccc1-n1cncn1)c1cc(Br)ccc1Br	3.07
CCOc1ccc(C(=O)Nc2ccc3c(c2)OCO3)cc1OCC	5.35
COc1ccccc1Oc1nc2c(c(=O)n(Cc3ccccc3F)c(=O)n2C)n1C	-30

SMILES	hERG current change (%, negative = inhibition) at 10uM [%]
COc1cc(C#N)c(NC(=O)CN2CCN(CCO)CC2)cc1OC	1.4
CCc1ccc2c(c1)C(c1ccc([N+](=O)[O-])cc1)=NNC(c1ccc(F)cc1)=N2	-7.54
Cc1cc(C)nc(/N=C(\N)C2=C(O)CC(C)(C)CC2=O)n1	1.08
Cc1ccc(S(=O)(=O)NC(=O)NC(C)c2ccc(F)cc2)cc1 (centres unmarked)	20.6
CCC/C(=N\NC(=O)c1csc(C)c1C)c1cccs1	-5.57
O=P(Cc1cc(Br)cc(Br)c1OCCO)(c1ccccc1)c1ccccc1	-0.447
COc1cccc(CNC(=O)C2Cc3ccccc3CN2C(C)=O)c1 (centres unmarked)	2.81
O=c1c2c(nc3c(-c4ccccc4)c[nH]n13)CCCC2	-20
COc1cc(OC)cc(C(=O)NCC(=O)OCC(=O)Nc2ncc(Cl)cc2Cl)c1	-3.71
Clc1ccc(C2=C3CCCCn4c(-c5ccccc5)c[n+](c43)C2)cc1.[Br-]	-82.1
CCCCc1ccc(-c2ccc(Br)cc2)nc1	-2.43
Br.CN(C)c1nc(=Nc2cccc(Cl)c2)ss1	3.71
Cc1cc(C)n2nc(SCC(=O)NCc3ccco3)nc2n1	9.53
NC(=O)c1ccc(SCC(=O)OCC(=O)NCc2cccs2)c([N+](=O)[O-])c1	-7.36
C=CCNc1sc(C(=O)c2cccs2)c(N)c1C#N	19.6
Oc1c(Cl)cc(Cl)cc1/C=N/c1nc(-c2ccc(Cl)cc2)cs1	19.1
COc1nc(Nc2cccc(C)c2)nc(N2CCCCC2)n1	-9.03
O=C(CN1C(=O)c2ccc(Br)cc2C1=O)NCC1CCCO1 (centres unmarked)	1.18
CCOc1cc(C(=O)N(CC)CC(=O)Nc2ccc3c(c2)OCCO3)ccc1OC	16.7
O=C(CSc1nccc(=O)[nH]1)NC1CCCC1	20.4
CCOC(=O)[C@H]1[C@H]2COc3ccc(Cl)cc3[C@@H]2N2C(=O)CN(Cc3ccc(Cl)cc3)C(=O)[C@@]12C	2.8
Cc1cc(N/N=C/c2cccc(Br)c2)nc2ccccc12	26.3
O=C(O)C(C(O)c1ccc([N+](=O)[O-])cc1)[n+]1ccccc1.[Br-] (centres unmarked)	21.1

SMILES	hERG current change (%, negative = inhibition) at 10uM [%]
COc1ccc(CSc2nnc(N)s2)cc1F	-4.82
CCN(CC(=O)NCc1cccs1)C(=O)c1ccc(OC)c(S(=O)(=O)N2CCOCC2)c1	-6.53
Cc1ccc(C(=O)N(CC(=O)Nc2sc(C)c(C)c2C(N)=O)C2CCCC2)cc1	-3.92
CCC(Cc1ccccc1)NC(=O)C1CCC(CNc2c(N3CCCC3)c(=O)c2=O)CC1 (centres unmarked)	0.51
CS(=O)(=O)N1CCC(C(=O)Nc2cc(Cl)ccc2Cl)CC1	12.3
Br.CCCCn1c(=N)n(CC(=O)c2ccco2)c2ccccc21	-41.8
CCOc1ccc(NC(=O)c2ccc(OCC3CCCO3)cc2)cc1S(=O)(=O)N(CC)CC (centres unmarked)	12.4
Cc1c(NC(=S)NC(=O)c2ccccc2Br)c(=O)n(-c2ccccc2)n1C	16.8
COc1ccc(NC(=O)C2CCN(S(=O)(=O)c3cccnc3)CC2)cc1Cl	8.87
CC1=CC(C)C2C(=O)N(CCCN(C)C)C(=O)C2C1 (centres unmarked)	-5.7
CCCCC(=O)Nc1cccc(-c2nc3ncccc3o2)c1C	-5.35
Cc1ccc(N2C(=O)CSC2c2cccnc2)c(Cl)c1 (centres unmarked)	13.3
CCc1cccc(NC(=O)CN(c2ccc(OC)cc2)S(=O)(=O)c2c(C)n[nH]c2C)c1	-2.45
O=C1c2ccccc2C(=O)N1CC(O)CN1CCOCC1 (centres unmarked)	0.24
CCOC(=O)c1ccccc1NC(=O)CSc1nc(N)cc(N)n1	-15.4
O=C(c1cccc(C(F)(F)F)c1)N1C[C@H]2C[C@@H](C1)c1cccc(=O)n1C2	-13.7
COCCNC(=O)C(C)OC(=O)C1=Cc2ccccc2OC1 (centres unmarked)	7.38
CC1(C)CC(=O)C(C(=S)Nc2ccccc2)=C(NC2CC(C)(C)NC(C)(C)C2)C1	-8.36
COc1ccc(-n2nnnc2SCC(=O)c2cccc(OC)c2)cc1	4.91
COCCNC(=O)/C(C#N)=C/c1c(N2CCN(C)CC2)nc2c(C)cccn2c1=O	6.58
